From patent publication US9861707B2, “Treating bladder tumor cells using fibronectin attachment protein as a target” (Purdue Research Foundation, priority 2010, dated 2018)

Tested on: T24 bladder tumor cells

In the case of “transferrin: clathrin-dependent cargo control”, the “effect of siRNA knock-down of Caveolin-1 on uptake” value (Caveolin-1 siRNA) is reported as “failed to inhibit” and the “effect of siRNA knock-down of clathrin on uptake” value (clathrin siRNA) is reported as “efficiently inhibited”.
